# Experimental data published in PubChem BioAssay AID1240 (Sanford-Burnham Center for Chemical Genomics, 2008).
# The whole screen tested about 50,000 compounds, of which about 800 (1.6%) showed an effect of 50% or more. The list shows a part of the results.
# Molecular target: Bcl-2-like protein 10 (Homo sapiens) (UniProt Q9HD36)
# Assay: Phenotype converters, Bcl-B/TR3 peptide binding displacement, primary biochemical FP (AID 1240);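 also: 0% = Bcl-B with tracer peptide and DMSO and 100% = tracer peptide lacking Bcl-B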
# Conditions: GST-Bcl-B / FITC-TR3 peptide fluorescence polarization; stronger effect = higher value; compound at 3.75 mg/L
# UniProt Q9HD36, sequence (Q9HD36 whole entry, looked up): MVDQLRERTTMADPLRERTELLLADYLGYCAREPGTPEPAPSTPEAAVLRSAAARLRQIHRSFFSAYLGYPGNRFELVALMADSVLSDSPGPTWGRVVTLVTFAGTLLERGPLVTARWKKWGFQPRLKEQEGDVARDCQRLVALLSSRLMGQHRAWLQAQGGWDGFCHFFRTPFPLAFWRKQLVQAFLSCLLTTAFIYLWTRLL
row,SMILES,displacement
1,CCOc1cc(C2NC(=O)NC(C)=C2C(=O)Nc2ccc(Cl)cc2)ccc1O (stereo not given),-6.2%
2,CCOC(=O)c1ccc(-c2ccc(/C=C3/C(=O)NN(c4ccc(F)cc4)C3=O)o2)cc1,-3.3%
3,CC1=CC(C)(C)N(C(=O)CN2C(=O)CCC2=O)c2ccccc21,-2.3%
4,CC1=NN(c2ccccc2)C(=O)/C1=C/c1cc(C)n(C)c1C,-1.2%
5,CCN(CC)CC(O)COc1ccccc1C(=O)CCc1ccccc1 (stereo not given),-1.6%
6,Cc1ccc(OCC(=O)Nc2ccccc2O)cc1,13.1%
7,COc1ccc([N+](=O)[O-])cc1NC(C)C,9.1%
8,COc1cccc2c1N(C(=O)c1ccc(F)cc1)C(C)(C)c1ssc(=S)c1-2,15%
9,Cc1sc(NC(=O)c2cc(Cl)ccc2Cl)c(C#N)c1C,-12.1%
10,CC(=O)Nc1ccc(Nc2ccc(C(F)(F)F)cc2[N+](=O)[O-])cc1,2.8%
11,N#CC1=C(N)SC(N)=C(C#N)C1C1CC=CCC1 (stereo not given),-18.6%
12,COc1ccc(CN=Cc2c(O)n(-c3ccc(Cl)cc3)c(=O)[nH]c2=O)cc1,-6.6%
13,Cc1nn(-c2ccccc2)c(C)c1S(=O)(=O)O,-3.3%
14,Cc1ccc2nsnc2c1NC(=O)Cc1ccccc1,-4.4%
15,CC(C)(C)c1ccc(OCCNC(=O)/C=C/c2ccccc2)cc1,5.4%
16,COc1ccccc1N(CC(=O)N1CCOCC1)S(=O)(=O)c1ccccc1,4.4%
17,Cc1cc(C)c(C)c(OCCCCCN2CCCC2)c1,7.4%
18,CC(C)c1ccc(/C=C2/SC(=S)N(c3cccc(Cl)c3)C2=O)cc1,-1%
19,CCOc1ccc(CN2CCN(Cc3cc(Br)ccc3O)CC2)cc1,-2.7%
20,COC(=O)C(C)N(c1ccc(OC)cc1)S(C)(=O)=O (stereo not given),-10.7%
21,CCOc1cccc2sc(NC(=O)C(C)C)nc12,-2.8%
22,Cc1cc(C)cc(NC(=O)Cc2ccc([N+](=O)[O-])cc2)c1,-9.7%

row,SMILES,displacement
1,O=C(O)CCCCCN1C(=O)C(O)=C(C(=O)/C=C/c2ccccc2)C1c1cccc(F)c1 (stereo not given),-0.1%
2,Cc1ccc(N2C(=O)/C(=C3/C(=O)N(C)c4ccccc43)SC2=S)cc1C,2%
3,Cc1ccc(S(=O)(=O)CCc2nc3ccccc3[nH]2)cc1,-1.9%
4,O=S(=O)(O)c1cccc2c(N=Cc3cc(Cl)cc(Cl)c3O)cccc12,6.8%
5,Cn1c2ccccc2c2nnc(SCc3ccccc3)nc21,9.9%
6,CC(C)CNC(=O)C(=O)Nc1c(O)c2ccccc2[nH]c1=O,5.2%
7,CC(Oc1ccc(Cl)cc1Cl)C(=O)N1CCN(c2ccc(Cl)cc2)CC1 (stereo not given),3.1%
8,CC(/C=N/Nc1nnc2c(n1)[nH]c1ccccc12)=C\c1ccco1,7%
9,O=C(c1ccccc1F)N1CCCc2ccccc21,-2.9%
10,Cc1ccc(CCSc2c(Cl)cccc2Cl)cn1,9.2%
11,COc1cc(/C=N/Nc2cc(N3CCCCC3)nc(N3CCCCC3)n2)ccc1O,4%
12,CC1CCN(Cc2c(O)ccc3c(=O)c(-c4ccc(Cl)cc4)coc23)CC1,-17.7%
13,Cc1ccc(Br)cc1S(=O)(=O)N1CCC(C)CC1,-2.6%
14,Cc1sc2nc(SC/C=C/c3ccccc3)[nH]c(=O)c2c1C,-1.7%
15,Cc1cc(C)c(NC(=O)CC#N)c(C)c1,5.7%
16,COc1ccc(Br)cc1/C=N/NC(=O)C(C)Sc1nc(C)cc(C)n1 (stereo not given),8%
17,O=C(CCN1C(=O)c2cccc3cccc(c23)C1=O)OCCCc1ccncc1,26.5%
18,CCOC(=O)c1c(NC(=O)c2ccc(OC)cc2)sc(C(C)=O)c1C,0.7%
19,Cc1onc(-c2ccccc2)c1C(=O)NCCC(c1ccccc1)c1ccccc1,-3.3%
20,Cc1ccc(NC(=S)NC(=O)c2ccco2)c(C)c1,9.5%
21,COc1cccc(C(=O)N2CCN(C3CCCC3)CC2)c1,-8.4%
22,NC(=O)c1cc(-c2ccccc2)sc1N,-12%

row,SMILES,displacement
1,CCCCOc1ccc(C(=O)Nc2ccc(Cl)cn2)cc1,12%
2,CCOC(=O)c1ccccc1N1C(=O)C2C3C=CC(C3)C2C1=O (stereo not given),47.2%
3,O=C(CN(c1ccc(F)cc1)S(=O)(=O)c1ccccc1)NCc1ccc(Cl)cc1,12.4%
4,O=C(Nc1cccc([N+](=O)[O-])c1)c1cc(S(=O)(=O)Nc2ccc(F)cc2)ccc1Cl,6.4%
5,O=c1[nH]c(N2CCCCC2)nc2ncn(Cc3ccccc3)c12,1.6%
6,CCOC(=O)c1c(NC(=S)NC(=O)c2ccccc2)sc2c1CC(C(C)C)OC2 (stereo not given),-7%
7,COC(=O)c1cccc(-c2ccc(/C=C3/C(=O)NN(c4cccc(Cl)c4)C3=O)o2)c1,11.5%
8,CC(C)COc1ccc(C(=O)Nc2ccc(N3CCOCC3)cc2)cc1,9.7%
9,Nc1ccc(-c2nnc(-c3ccncc3)o2)cc1,21%
10,Cc1ccc(C(=O)Nc2cccc(C(=O)O)c2)cc1S(=O)(=O)N1CCCCC1,-15.6%
11,COC(=O)/C(=C(/C)c1ccccc1)[N+](=O)[O-],-5.9%
12,O=C(Oc1ccc(S(=O)(=O)c2ccc(OC(=O)c3ccncc3)cc2)cc1)c1ccncc1,11%
13,CCOC(=O)c1c(-c2ccc(Cl)cc2)csc1NC(=O)COc1ccc(F)cc1,9.8%
14,O=C(Nc1ccncc1)c1ccc([N+](=O)[O-])cc1,19.5%
15,O=C1C=C(c2cccs2)CC(c2ccccc2)C1n1nnc([N+](=O)[O-])n1 (stereo not given),-4.9%
16,Cc1cc(NC(=O)c2ccc(C)c([N+](=O)[O-])c2)ccc1Br,10.7%
17,NNc1nc2sc3c(c2c(=O)n1Cc1ccccc1)CCCC3,-2.8%
18,CC(=O)Oc1cc2ccccc2cc1-c1nc2n(n1)C(=O)CCS2,11.7%
19,CCOC(=O)c1ccc(-n2c(C)cc(/C=C3\SC(=S)NC3=O)c2C)cc1,20.1%
20,CCOC(=O)C1=C(C)OC(N)=C(C#N)C1c1c(C)c(C)cc(C)c1C (stereo not given),12.4%
21,O=[N+]([O-])c1cc(C(F)(F)F)ccc1N1CCN(C/C=C/c2ccccc2)CC1,-6.4%
22,COc1ccc(CNC(=O)c2c(-c3c(Cl)cccc3Cl)noc2C)cc1,0.9%

row,SMILES,displacement
1,CCOc1cc(/C=C2/C(=O)NN(c3ccc(Br)cc3)C2=O)ccc1O,-4.9%
2,COc1ccc(C2CC(C(F)(F)F)n3nc(C(=O)NCc4cccs4)c(Cl)c3N2)cc1OC (stereo not given),1.1%
3,O=C(c1cccs1)N1CCN(Cc2cccc(F)c2)CC1,7%
4,Cc1cccc(NC(=O)C(=O)N/N=C/c2ccc(C)o2)c1,-14.6%
5,CCc1ccc(NCCC(=O)c2ccc([N+](=O)[O-])cc2)cc1,-4.2%
6,CNc1ccc([N+](=O)[O-])cc1-n1cnc(-c2ccc([N+](=O)[O-])cc2)c1,-4.4%
7,CCc1ccc(C2Nc3ccccc3NC3=C2C(=O)CC(c2ccc(OC)cc2)C3)s1 (stereo not given),6%
8,COc1cc(OC)c(CNc2ccc(C)c(C)c2)cc1Br,11.5%
9,Fc1ccc(Cc2cnc(Nc3ccccc3)s2)cc1,-12.5%
10,O=C(Nc1ccc(Nc2ccccc2)c2c1C(=O)c1ccccc1C2=O)c1ccccc1,11.4%
11,Cc1cc2c(cc1C)NC(c1coc3ccccc3c1=O)C1=C(CC(C)(C)CC1=O)N2 (stereo not given),-3.7%
12,CS(=O)(=O)N1CCN(C2CCC(c3ccccc3)CC2)CC1 (stereo not given),9.5%
13,Cc1cccc(C(=O)N2CCC(C(N)=O)CC2)c1,13.5%
14,O=C(c1ccncc1)N1CCN(Cc2ccccc2)CC1,-7.8%
15,C=CCn1c(SCC(=O)N2CCCCC2)nc2sc(C)c(C)c2c1=O,-8.7%
16,Cc1ccc(C)c(N(CC(=O)NC2CCCCC2)S(=O)(=O)c2ccccc2)c1,-7.8%
17,COc1cc(C(=O)c2cc(Br)ccc2NC(=O)C(OC)c2ccccc2)cc(OC)c1OC (stereo not given),10.3%
18,CC(Nc1nc(-c2ccccc2O)nc2ccccc12)c1ccccc1 (stereo not given),-6.5%
19,CCC1CCc2c(sc(NC(=O)c3c(-c4ccccc4)noc3C)c2C(N)=O)C1 (stereo not given),-9%
20,Cc1cc(Cl)ccc1OCCCC(=O)NO,4.6%
21,Cc1cc(N2C(=O)NC(=O)/C(=C\C=C\c3ccco3)C2=O)ccc1Br,-3.7%
22,COc1cc(C2Nc3cc(C)c(C)cc3NC3=C2C(=O)CC(C)(C)C3)c(OC)cc1Br (stereo not given),-1.8%

row,SMILES,displacement
1,O=[N+]([O-])c1ccc(C2CC(c3ccc(Cl)cc3)=Nc3ccccc3N2)cc1 (stereo not given),1%
2,O=c1[nH]c(=O)n(-c2ccccc2Cl)c(O)c1C=NCCCn1ccnc1,11.5%
3,O=C(NCCN1CCOCC1)c1ccc(Cl)cc1,2.1%
4,CC(=O)c1cccc(NC(=O)c2nn3c(C(F)(F)F)cc(-c4cccs4)nc3c2Cl)c1,13.4%
5,Cc1ccc(Cl)c(OCCCN2CCCCC2)c1,-6.7%
6,O=C(Nc1ccccc1-c1ccccc1)c1ccc(Br)cc1,-6.5%
7,CCOc1cc(/C=C2\SC(N3CCC(C)CC3)=NC2=O)ccc1O,-26.2%
8,Cc1ccc(OC(=O)c2ccc(Br)o2)cc1,-13.2%
9,CC1=C(C(=O)OC(C)C)C(c2ccc(OCC(N)=O)cc2)NC(=O)N1 (stereo not given),10.3%
10,CCOC(=O)c1c(-c2ccc(OC)c(OC)c2)csc1N,15.1%
11,COc1ccc(-c2cc(C(=O)Nc3ccccc3F)c3ccccc3n2)c(OC)c1,82.3%
12,Cc1ccc2[nH]c(C)c(CC(=O)N/N=C/c3cccnc3)c2c1,4.9%
13,O=C(CCC(=O)Nc1ccc(I)cc1)N/N=C/C=C/c1ccccc1,11.1%
14,Cc1cc(C)c2[nH]c(O)c(N=NC(=O)/C(=C\c3ccc([N+](=O)[O-])cc3)NC(=O)c3ccccc3)c2c1,7.2%
15,O=C(O)c1cccc(NC(=O)c2cc3cc([N+](=O)[O-])ccc3oc2=O)c1,-0.3%
16,Cc1c(NC(=S)NCc2ccco2)c(=O)n(-c2ccccc2)n1C,0.5%
17,CC1=C(C#N)c2nc(N)c(C#N)c(C)c2/C1=C/c1cc(Cl)cc(Cl)c1Cl,6.3%
18,O=C(/C=C/c1ccc(Cl)cc1)Nc1ccc(NC(=O)c2ccccc2)cc1,1.2%
19,COc1ccc(NCN2C(=O)S/C(=C/c3ccc(F)cc3)C2=O)cc1Cl,-11.3%
20,O=C(NC(CS)C(=O)O)c1cncc(O)c1 (stereo not given),11%
21,COc1cc(/C=C/c2cc(C(F)(F)F)[nH]c(=O)n2)ccc1O,44.6%
22,O=C(Nc1nccs1)c1cccc(NC(=O)c2cccs2)c1,13.1%
